# In PubChem BioAssay AID624170 (National Center for Advancing Translational Sciences (NCATS), 2012):
# Screen size: about 410,000 compounds; about 850 (0.21%) were called active. Inconclusive means that the source gave no clear call. Such entries were picked first, then a sample of the others. The call rests on the fitted dose curve; in most records, active means well fitted inhibition curve with a large enough effect; inconclusive means small, poorly fitted or top-dose-only effect, or another doubt; inactive means no such curve, though single readings can be large or run the other way. Potencies of inconclusive entries are left out as doubtful fits.
# Biological target: Glutaminase kidney isoform, mitochondrial (Homo sapiens) (UniProt O94925)
# Chain of UniProt O94925 (O94925 whole entry, looked up, canonical isoform): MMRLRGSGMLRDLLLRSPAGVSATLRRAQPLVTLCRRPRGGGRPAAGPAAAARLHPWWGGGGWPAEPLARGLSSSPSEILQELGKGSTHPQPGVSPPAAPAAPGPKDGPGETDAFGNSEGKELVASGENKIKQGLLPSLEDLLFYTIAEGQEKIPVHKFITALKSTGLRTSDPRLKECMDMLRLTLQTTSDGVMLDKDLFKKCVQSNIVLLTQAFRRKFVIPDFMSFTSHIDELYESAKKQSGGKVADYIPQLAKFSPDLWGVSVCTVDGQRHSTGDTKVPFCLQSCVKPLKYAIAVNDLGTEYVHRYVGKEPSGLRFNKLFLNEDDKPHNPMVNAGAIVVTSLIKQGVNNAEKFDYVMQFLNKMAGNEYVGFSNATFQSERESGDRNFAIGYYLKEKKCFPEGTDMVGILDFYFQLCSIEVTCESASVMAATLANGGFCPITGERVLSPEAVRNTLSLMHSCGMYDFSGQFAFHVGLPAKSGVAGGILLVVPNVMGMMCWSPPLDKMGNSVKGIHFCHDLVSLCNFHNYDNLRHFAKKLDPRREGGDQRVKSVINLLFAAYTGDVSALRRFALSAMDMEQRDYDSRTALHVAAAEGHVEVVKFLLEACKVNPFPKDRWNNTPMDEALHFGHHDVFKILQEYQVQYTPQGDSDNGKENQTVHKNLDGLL
# Experiment: qHTS for Inhibitors of Glutaminase (GLS)
# Settings: GLS enzymatic activity, qHTS titration; series mostly up to 45.5 µM
# Source text: Glutaminase (GLS) catalyzes the hydrolysis of glutamine into glutamate and ammonia. It plays a critical role in glutaminolysis, which is an important energy source for proliferating cells. It was shown that c-Myc, an oncogenic transcription factor known to regulate microRNAs and to stimulate cell proliferation, increases glutamine metabolism by stimulating the expression of GLS via direct suppression of miR23a and miR23b.
# GLS is also thought to play a pathogenic role on HAD using a human HIV-1 infected macrophage system. […] GLS inhibition limits glutamate release and provides neuroprotection against HIV-1 infected macrophages.
# The overall goal of this project is to identify small molecule inhibitors of GLS through quantitative high throughput screening (qHTS) of the MLSMR. A validated potent and selective inhibitor can be used as a tool molecule to further study the pharmacology of its target as well as explore its potential therapeutic application in cancer and inflammatory neurological disorders, such as HIV1-associated dementia (HAD) and multiple sclerosis.
# NIH Chemical Genomics Center [NCGC]
# NIH Molecular Libraries Probe Centers Network [MLPCN]
# Assay Submitter (PI): Barbara S. Slusher, Johns Hopkins University
# Three 3 uL of hKGA is dispensed into black well 1536-well plates in 45 mM KH2PO4 (pH 8.2), 0.02% Tween-20. Then 23 nL of compounds are added through pin tool transfer. To this, 1 uL of 1mM L-Glutamine and 1 uL of a solution of L-Glutamateoxidase, HRP, Amplex red are added. Plate is centrifuged for 25 sec before an initial fluorescence read is obtained on the ViewLux, after 30 min of RT incubation, the final read is taken on the ViewLux.
# Potency means the concentration at half of the fitted maximal effect; tags describe the fitted curve by direction and shape.
row,SMILES,Potency
1,O=C(NNC(=S)NC(=O)c1cccs1)c1cccnc1,"inconclusive [inhibitor, single point]"
2,CCN(CC)c1ccc(/C=N/NC(=O)CNC(=O)C2COc3ccccc3O2)c(O)c1 (centres undefined),"inconclusive [inhibitor, single point]"
3,O=C1C(=O)N(c2ccccc2)C(c2ccccc2[N+](=O)[O-])/C1=C(\O)c1ccccc1 (centres undefined),"inconclusive [inhibitor, partial curve, poor fit]"
4,CCOC(=O)CC12CN3CN(C1)CC(CC(=O)OCC)(C3)C2=O,"inconclusive [inhibitor, single point]"
5,COc1cc(/C=N/NC(=O)CCC(=O)Nc2ccc(F)cc2)ccc1O,"inconclusive [inhibitor, single point]"
6,c1ccc(Cc2nnc3sc(-c4cccs4)nn23)cc1,"inconclusive [inhibitor, partial curve, poor fit]"
7,Oc1c(N=Nc2nn[nH]n2)ccc2ccccc12,active: 20 µM
8,CCCCN(CCCC)CCNC(=O)Cn1nc(CC)n2c(cc3sc(C)cc32)c1=O,inactive
9,Cc1ccc(NC(=O)Cn2c(=O)n(Cc3ccco3)c(=O)c3sc4ccccc4c32)cc1C,inactive
10,Cn1c(NCCO)nc2c1c(=O)n(Cc1cccc(F)c1)c(=O)n2C,inactive
11,CN1OC[C@@H]2CN[C@H](c3cccc(-c4cc(Cl)cc(Cl)c4)c3)C[C@@H]21,inactive
12,COc1ccccc1NCC(O)COc1ccc(C(C)(C)C)cc1 (centres undefined),"inconclusive [inhibitor, single point]"
13,C/C(=N\Nc1ccc(Cl)nn1)c1ccccc1O,"inconclusive [inhibitor, partial curve, poor fit]"
14,Cc1ccc(S(=O)(=O)c2nc(NN(C)C)sc2Cl)cc1,"inconclusive [inhibitor, single point]"
15,CN(C)CCCNS(=O)(=O)c1ccc(-n2nnc3ccccc32)c([N+](=O)[O-])c1,"inconclusive [inhibitor, full curve]"
16,COc1cc(C(=O)NS(=O)(=O)c2ccccc2C)ccc1Cc1cn(C)c2ccc(NC(=O)OC3CCCC3)cc12,inactive
17,Cc1ccc(C)c(NC(=O)Cn2cc(C(=O)c3ccco3)c3ccccc32)c1,"inconclusive [inhibitor, single point]"
18,C=CCNc1nnc(SC2CC(=O)N(c3ccc(OCCC)cc3)C2=O)s1 (centres undefined),inactive
19,CCC(CC)c1nnc(NC(=O)c2ccc3c(c2)OCO3)s1,"inconclusive [inhibitor, single point]"
